From the RNAGym collection of RNA variant scans (doi:10.7554/elife.90254)
Read counts are not given, so values of variants with three or more changes are uncertain.

B1: LINE1-mini (parent)
chain: GGCAGAGCUCAACACAGCGUGGCAAAGUGGCUGUGGCUAGACUGCC

Variants of: B1
Assay: self-cleavage, relative activity (ratio to wild type); higher = more cleavage; in vitro, sequencing; the parent is a self-cleaving ribozyme

With G27A G35U U43G C46U as the variant, how does the self-cleavage read?
Its self-cleavage is 0.

For G27A G36C C37G, which self-cleavage is on record?
The self-cleavage was 0.11.

With G27A G36U G40C as the variant, how does the self-cleavage read?
Its self-cleavage is 0.11.

Which self-cleavage does the source give for G27A U28A U32G here?
Its self-cleavage is 0.3.

With G27A U28C C37G as the variant, how does the self-cleavage read?
The self-cleavage was 0.03.

For G27A U28G C31A G35U A41U, which self-cleavage is on record?
The self-cleavage was 0.04.

Which self-cleavage does the source give for G27A U28G U32A here?
Its self-cleavage is 0.03.

With G27A U32C G33A as the variant, how does the self-cleavage read?
Its self-cleavage is 0.03.

Which self-cleavage does the source give for G27A U32G G36U G40C here?
The self-cleavage was 0.03.

Which self-cleavage does the source give for G27A U32G U43G here?
Its self-cleavage is 0.

For G27A U34G C37A, which self-cleavage is on record?
The self-cleavage was 0.05.

Which self-cleavage does the source give for G27A U38A A39U C45U here?
The self-cleavage was 1.51.

Which self-cleavage does the source give for G27A U38A A41G C46A here?
The self-cleavage was 0.16.

With G27A U38C G40C C46A as the variant, how does the self-cleavage read?
The self-cleavage was 0.09.

Which self-cleavage does the source give for G27A U38G C46A here?
Its self-cleavage is 0.02.

With G27A U38G G44U C45U as the variant, how does the self-cleavage read?
Its self-cleavage is 0.03.

With G27A U43C C45G as the variant, how does the self-cleavage read?
Its self-cleavage is 0.06.

For G27A U43C C46G, which self-cleavage is on record?
The self-cleavage was 0.12.

Which self-cleavage does the source give for G27C A39C C42U G44U here?
The self-cleavage was 0.06.

For G27C A39G C42A C46U, which self-cleavage is on record?
Its self-cleavage is 0.1.

With G27C A39G G40U as the variant, how does the self-cleavage read?
Its self-cleavage is 0.06.

Which self-cleavage does the source give for G27C C31A A39U G44U here?
The self-cleavage was 0.01.

Which self-cleavage does the source give for G27C C37A C46U here?
The self-cleavage was 0.05.

Which self-cleavage does the source give for G27C C37A G40C here?
The self-cleavage was 0.05.

With G27C C37G C42U as the variant, how does the self-cleavage read?
The self-cleavage was 0.

Which self-cleavage does the source give for G27C C42A C46A here?
The self-cleavage was 0.09.

Which self-cleavage does the source give for G27C C42U C45G here?
The self-cleavage was 0.1.

For G27C G29A G30A, which self-cleavage is on record?
Its self-cleavage is 2.88.

With G27C G29A G35C as the variant, how does the self-cleavage read?
Its self-cleavage is 0.03.

Which self-cleavage does the source give for G27C G29A G40A here?
The self-cleavage was 0.11.

For G27C G29A U32G, which self-cleavage is on record?
The self-cleavage was 0.06.

For G27C G29A U38C A39G, which self-cleavage is on record?
The self-cleavage was 0.23.

Which self-cleavage does the source give for G27C G29C G40A here?
The self-cleavage was 0.03.

For G27C G29U A39C, which self-cleavage is on record?
Its self-cleavage is 0.13.

With G27C G29U C42G as the variant, how does the self-cleavage read?
The self-cleavage was 0.02.

Which self-cleavage does the source give for G27C G29U G35A C37A here?
The self-cleavage was 0.07.

With G27C G30C G35A as the variant, how does the self-cleavage read?
The self-cleavage was 0.04.

With G27C G30C U34A as the variant, how does the self-cleavage read?
The self-cleavage was 0.08.

For G27C G33C G36U U38A A39G, which self-cleavage is on record?
Its self-cleavage is 0.03.

With G27C G33U C42G as the variant, how does the self-cleavage read?
The self-cleavage was 0.08.

Which self-cleavage does the source give for G27C G35U A41U here?
The self-cleavage was 0.22.

Which self-cleavage does the source give for G27C G36A C42U here?
The self-cleavage was 0.03.

Which self-cleavage does the source give for G27C G36C A39C here?
Its self-cleavage is 0.04.

Which self-cleavage does the source give for G27C G36U G40U here?
Its self-cleavage is 0.1.

Which self-cleavage does the source give for G27C U28A A41U C46A here?
The self-cleavage was 0.93.

Which self-cleavage does the source give for G27C U28A G30A here?
Its self-cleavage is 1.09.

Which self-cleavage does the source give for G27C U28A G33A here?
Its self-cleavage is 0.21.

For G27C U28A G35C, which self-cleavage is on record?
The self-cleavage was 0.02.

With G27C U28A G36U G44C C45U as the variant, how does the self-cleavage read?
The self-cleavage was 0.02.

With G27C U28A U43C C46U as the variant, how does the self-cleavage read?
Its self-cleavage is 0.01.

For G27C U28C C42U, which self-cleavage is on record?
The self-cleavage was 0.18.

With G27C U28C G29A as the variant, how does the self-cleavage read?
Its self-cleavage is 0.46.

For G27C U32C C46A, which self-cleavage is on record?
Its self-cleavage is 0.18.

Which self-cleavage does the source give for G27C U32C G40C here?
The self-cleavage was 0.1.

For G27C U32G C42A, which self-cleavage is on record?
Its self-cleavage is 0.02.

Which self-cleavage does the source give for G27C U34A C37G A39C here?
Its self-cleavage is 0.03.

For G27C U34A G35C A41G C46G, which self-cleavage is on record?
Its self-cleavage is 0.08.

Which self-cleavage does the source give for G27C U34G U38G here?
The self-cleavage was 0.

Which self-cleavage does the source give for G27C U38G A41C here?
Its self-cleavage is 0.03.

Which self-cleavage does the source give for G27U A39G C45A here?
Its self-cleavage is 0.07.

With G27U A39G C45G as the variant, how does the self-cleavage read?
The self-cleavage was 0.51.

Which self-cleavage does the source give for G27U A41C C45A here?
The self-cleavage was 0.07.

Which self-cleavage does the source give for G27U C31G G36A A39C here?
Its self-cleavage is 0.12.

For G27U C31G U32C, which self-cleavage is on record?
Its self-cleavage is 0.18.

Which self-cleavage does the source give for G27U C31U A39G C46A here?
The self-cleavage was 0.15.

Which self-cleavage does the source give for G27U C31U C37U G40C here?
The self-cleavage was 0.07.

With G27U C31U U34G as the variant, how does the self-cleavage read?
Its self-cleavage is 0.02.

Which self-cleavage does the source give for G27U C37A A39C C42A G44A here?
Its self-cleavage is 0.02.

With G27U C37G C45A as the variant, how does the self-cleavage read?
Its self-cleavage is 0.02.

With G27U C37G G44A as the variant, how does the self-cleavage read?
The self-cleavage was 0.39.

Which self-cleavage does the source give for G27U C37U C45G here?
The self-cleavage was 0.03.

With G27U C37U C45U as the variant, how does the self-cleavage read?
Its self-cleavage is 0.17.

For G27U G29A A39U G44U, which self-cleavage is on record?
Its self-cleavage is 0.08.

With G27U G29A A41C as the variant, how does the self-cleavage read?
The self-cleavage was 0.04.

Which self-cleavage does the source give for G27U G29A G33C G36U here?
Its self-cleavage is 0.07.

Which self-cleavage does the source give for G27U G29A G44C here?
Its self-cleavage is 0.45.

With G27U G29A U32G as the variant, how does the self-cleavage read?
Its self-cleavage is 0.75.

For G27U G29C C31U A39C, which self-cleavage is on record?
The self-cleavage was 0.03.

Which self-cleavage does the source give for G27U G29C C31U G33C C45A here?
The self-cleavage was 0.01.

For G27U G29C U38C C45A, which self-cleavage is on record?
The self-cleavage was 0.03.

For G27U G29U G35A A41G, which self-cleavage is on record?
Its self-cleavage is 0.04.

Which self-cleavage does the source give for G27U G29U U32A here?
Its self-cleavage is 0.68.

For G27U G29U U34G, which self-cleavage is on record?
Its self-cleavage is 0.11.

Which self-cleavage does the source give for G27U G30A C31A G33A here?
Its self-cleavage is 0.02.
